In data set [1] the test system is 4T1-Luc2 triple-negative cell line. Put plainly: TNBC orthotopic mouse model (tumor resection model), Example 7-3. The conditions noted are these: 15 injections; for anti-metastasis and anti-recurrence effects: 300 μg and 600 μg intraperitoneally, vs untreated and control groups; for mice deceased / survival rate: as of 59 days.
Data set [2] has the same test system. Nature of the data set: TNBC orthotopic mouse model (tumor resection model), Example 7-4. The conditions noted are these: for mice deceased / survival rate: 100 μg intraperitoneally every two days.
The test system is the same in data set [3]. Nature of the data set: TNBC orthotopic mouse model (non-tumor resection model), tumor volume. It is filed as in vivo. The conditions noted are these: 30 μg, 100 μg, 300 μg intraperitoneally every other day, six injections; vs untreated. The text has this:
Each test group consisted of five animals.

Data set [4] has the same test system. Put plainly: TNBC orthotopic mouse model (tumor resection model), Example 7-2. The conditions noted are these: 30 μg intraperitoneally every other day, six injections; 32 days post-tumor resection.
Where [5] appears, read: 300 μg intraperitoneally every two days.
Where [6] appears, read: 600 μg intraperitoneally every two days.
The mark [7] stands for this setting: 15 injections, 42 days post-tumor resection.

[NapdU] = 5-[N-(1-naphthylmethyl)carboxamide]-2'-deoxyuridine (Nap-dU), written as 6

Turning to “AD089: AD005 truncated sequence GAC6AGCA6AAG6CCGGA6GGCAGC666A6GCC, 6 = Nap-dU (DNA GACUAGCAUAAGUCCGGAUGGCAGCUUUAUGCC; DNA, [NapdU] at 4, 9, 13, 19, 26, 27, 28, 30, backbone not given here)”, the “anti-metastasis and anti-recurrence effects” value in data set [1] is “increasingly effective anti-metastasis and anti-recurrence effects with higher dosages”. Moreover, in data set [1] (setting [5]), the mice deceased was 3 out of 4 and the survival rate is 25%. In data set [1] (setting [6]), the mice deceased is 2 out of 4 and the survival rate stood at 50%.
As for “AD212: GA96AG9A6AAG6CCGGA6GGCAGC666A6GCCGACCA6, 6 = Nap-dU, 9 = gemcitabine (DNA GANNAGNANAAGNCCGGANGGCAGCNNNANGCCGACCAN; Nap-dU and gemcitabine modified nucleotides; modified_base 3 OTHER; Gemcitabine; modified_base 7 OTHER; gemcitabine; modified_base 4 OTHER; 5-(N-(1-naphthylmethyl)carboxamide)-2'-deoxyuridine(Nap-dU); modified_base 9 OTHER; modified_base 13 OTHER; modified_base 19 OTHER; 5-(N-(1-naphthylmethyl)carboxamide)-2'-deoxyuridine)”, in data set [2] (setting [7]), the mice deceased was 4 out of 5 and the survival rate was determined as 20%.
On to “AD210: 99TGGAC6AGCA6AAG6CCGGA6GGCAGC666A6GCCGACCA6, 6 = Nap-dU, 9 = gemcitabine (DNA NNTGGACNAGCANAAGNCCGGANGGCAGCNNNANGCCGACCAN; Nap-dU, 5' gemcitabine residues; modified_base 1..2 OTHER; gemcitabine; modified_base 8 OTHER; 5-(N-(1-naphthylmethyl)carboxamide)-2'-deoxyuridine(Nap-dU); modified_base 13 OTHER; modified_base 17 OTHER; modified_base 23 OTHER; modified_base 30..32 O)”, for which, in data set [2] (setting [7]), the mice deceased was 3 out of 5 and the survival rate was determined as 40%. In data set [2] (100 μg intraperitoneally, 15 injections, 42 days post-tumor resection), the “anti-metastasis and anti-recurrence effects vs AD005 300 μg group of 7-3-3” value was “superior anti-metastasis and anti-recurrence effects”.
For `Nc1ccn([C@@H]2O[C@H](CO)[C@@H](O)C2(F)F)c(=O)n1` [gemcitabine, reference compound], the “time by which the group perished due to metastasis” value in data set [2] (1 mg intravenously every two days, 10 injections, post-tumor resection) is on record as at most 42 days.
On to “AD005: truncated nucleic acid ligand GAC6AGCA6AAG6CCGGA6GGCAGC666A6GCCGACCA6, 6 = Nap-dU (DNA GACNAGCANAAGNCCGGANGGCAGCNNNANGCCGACCAN; Nap-dU modified bases; modified_base 4 OTHER; 5-(N-(1-naphthylmethyl)carboxamide)-2-deoxyuridine; modified_base 9 OTHER; 5-(N-(1-naphthylmethyl)carboxamide)-2'-deoxyuridine(Nap-dU); modified_base 13 OTHER; modified_base 19 OTHER; modified_base 26..28 OTHER; 5-(N-(1-naphthylmethyl)carboxamide)-2'-deox)”, for which the “tumor suppression effect (tumor size)” value in data set [3] is recorded as “increasingly effective tumor suppression effect as the dosage increased”. For the same molecule, the mice deceased in data set [4] is on record as 2 out of 7; in data set [1] (setting [5]), 4 out of 5; in data set [1] (setting [6]), 1 out of 4. Further, the survival rate entry is “approximately 70%” in data set [4], 20% in data set [1] (setting [5]) and 75% in data set [1] (setting [6]). Moreover, the “anti-metastasis and anti-recurrence effects” value in data set [1] is “increasingly effective anti-metastasis and anti-recurrence effects with higher dosages”.
For “AD211: GAC6AGCA6AAG6CCGGA6GGCAGC666A6GCCGA99A6, 6 = Nap-dU, 9 = gemcitabine (DNA GACNAGCANAAGNCCGGANGGCAGCNNNANGCCGANNAN; Nap-dU and gemcitabine modified nucleotides; modified_base 36..37 OTHER; gemcitabine; modified_base 39 OTHER; 5-(N-(1-naphthylmethyl)carboxamide)-2'-deoxyuridine(Nap-dU); modified_base 30 OTHER; modified_base 26..28 OTHER; modified_base 19 OTHER; modified_base 1)”, in data set [2] (setting [7]), the mice deceased is given as 4 out of 5 and the survival rate came to 20%.

The values are drawn from patent US20240336926A1, “PHARMACEUTICAL COMPOSITION FOR TREATING TRIPLE NEGATIVE BREAST CANCER, CONTAINING NON-NATURAL NUCLEIC ACID LIGAND AS ACTIVE INGREDIENT” (INTEROLIGO CORPORATION, priority 2021, published 2024).
